# PubChem BioAssay (NCATS)
# Inconclusive results, whose numbers are uncertain, are shown with a selection of clear calls. For part of these data: Potencies of inconclusive entries are doubtful fits and often do not repeat. For part of these data: “Side channel” marks fits to a control or component signal instead of the main read-out. Calls of active or inactive are those of the source. Unless noted, the call rests on the fitted dose curve; in most records, active means well fitted curve in either direction with a large enough effect (not every such curve was filed as active); inconclusive means small, poorly fitted or top-dose-only effect, or another doubt; inactive means flat fitted curve, though single readings scatter.
# Tests used:
# [1] = NFAT Signaling Pathway (AID 444); conditions: Jurkat NFAT-bla M1, carbachol, beta-lactamase ratio, 5 h; at 17.2 µM (top of the series) unless noted;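 further: carbachol stimulus at about its EC50 of 1 µM final; on the % scale 0 is the no-effect control and ±100 the full control effect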
# Method in brief: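 Jurkat cells with NFAT-driven β-lactamase reporter and co-expressed M1 receptor, stimulated with carbachol (final 1 uM, ~EC50), compound titration, 5 h at 37 °C. CCF4 loaded 1 h at RT; 460/530 nm ratio gave %activity and AC50.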
# [2] = biological target: Mitogen-activated protein kinase 10 (Mus musculus) (UniProt Q61831); experiment: JNK3 AlphaScreen Assay (AID 530); conditions: JNK3 lysate, c-Jun phosphorylation; activity change, negative = inhibition: at 57.1 µM (top of the series);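 further: kinase came from lysate of stimulated human HepG2 cells; signal reports phosphorylation of biotinylated GST-cJun 1-79 at Ser73 with 10 µM ATP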; further: potency means the concentration at half of the fitted maximal effect; on activity change, negative = inhibition: on the % scale 0 is the no-effect control and ±100 the full control effect
# Method in brief: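 Activity was read by AlphaScreen after JNK3-containing HepG2 lysate (cytokine pre-activated) phosphorylated biotinylated GST-cJun with 10 uM ATP at room temperature. Phospho-Ser73 cJun antibody with Protein-A acceptor beads provided detection.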
# [3] = biological target: Muscarinic acetylcholine receptor M1 (Rattus norvegicus) (UniProt P08482); experiment: qHTS Assay for Antagonists of Acetylcholine Muscarinic M1 Receptor: Kinetic Measurement of Intracellular Calcium Response (AID 943; active means well fitted curve in the direction sought with a large enough effect; inconclusive means small, poorly fitted or top-dose-only effect, or another doubt; inactive means no such curve, though single readings can be large; an effect the other way counts as inactive or inconclusive; further: potency means the concentration at half of the fitted maximal effect; nearly all actives have a fitted effect of over 75% in size)
# Chain of UniProt P08482 (P08482 whole entry, looked up): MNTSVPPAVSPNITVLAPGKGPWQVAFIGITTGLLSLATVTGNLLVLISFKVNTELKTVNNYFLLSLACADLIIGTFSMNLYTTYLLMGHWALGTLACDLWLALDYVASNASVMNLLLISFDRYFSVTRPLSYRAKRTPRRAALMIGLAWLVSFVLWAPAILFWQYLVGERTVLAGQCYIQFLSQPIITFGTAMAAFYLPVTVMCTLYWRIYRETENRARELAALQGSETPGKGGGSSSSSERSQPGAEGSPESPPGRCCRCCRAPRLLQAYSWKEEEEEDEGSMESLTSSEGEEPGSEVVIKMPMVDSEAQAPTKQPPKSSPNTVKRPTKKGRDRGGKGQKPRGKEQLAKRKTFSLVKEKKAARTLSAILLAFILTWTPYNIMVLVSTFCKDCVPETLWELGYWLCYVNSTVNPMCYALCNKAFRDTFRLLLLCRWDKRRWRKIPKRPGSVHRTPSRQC
# Method in brief: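 Antagonism is measured as inhibition of the carbachol-evoked calcium rise in CHO cells transfected with rat M1. Cells are dye-loaded, exposed to compound for 10 min, then stimulated with 100 nM carbachol (EC80).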
# [4] = biological target: Cytochrome P450 3A4 (Homo sapiens) (UniProt P08684); experiment: qHTS Assay for Inhibitors and Substrates of Cytochrome P450 3A4 (AID 884; active means well fitted curve in the direction sought with a large enough effect; inconclusive means small, poorly fitted or top-dose-only effect, or another doubt; inactive means no such curve, though single readings can be large; an effect the other way counts as inactive or inconclusive; further: potency means the concentration at half of the fitted maximal effect; nearly all actives have a fitted effect of over 50% in size)
# Chain of UniProt P08684 (P08684 whole entry, looked up): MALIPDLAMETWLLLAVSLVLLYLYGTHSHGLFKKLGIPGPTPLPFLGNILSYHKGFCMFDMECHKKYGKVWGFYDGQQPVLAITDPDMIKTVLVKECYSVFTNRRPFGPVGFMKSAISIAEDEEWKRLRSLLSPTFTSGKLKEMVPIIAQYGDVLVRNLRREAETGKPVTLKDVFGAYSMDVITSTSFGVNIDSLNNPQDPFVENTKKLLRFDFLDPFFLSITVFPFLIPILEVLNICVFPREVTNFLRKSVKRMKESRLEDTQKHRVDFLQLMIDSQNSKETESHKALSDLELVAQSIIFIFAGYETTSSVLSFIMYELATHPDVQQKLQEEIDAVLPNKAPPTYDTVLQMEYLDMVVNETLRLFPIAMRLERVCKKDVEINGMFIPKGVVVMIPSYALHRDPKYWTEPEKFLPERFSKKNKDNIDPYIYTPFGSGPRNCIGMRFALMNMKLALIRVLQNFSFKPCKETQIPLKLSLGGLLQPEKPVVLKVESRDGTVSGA
# Method in brief: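 Luminescent readout of luciferin produced by CYP3A4 (20 nM) dealkylation of Luciferin-PPXE, 25 uM (its KM). NADPH-driven reaction ran 60 min at RT after 10 min compound preincubation; data scaled to 57 uM ketoconazole as 100% inhibition.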
# [5] = biological target: 3',5'-cyclic-AMP phosphodiesterase 4B (Homo sapiens) (UniProt Q07343); experiment: qHTS Assay for Inhibitors of PDE-IV (AID 607; active means well fitted activation curve with a large enough effect in the main read-out, with a control signal flat, not every such curve was filed as active; inconclusive means small, poorly fitted or top-dose-only effect, or effect the other way, or a change in a side signal; further: potency means the concentration at half of the fitted maximal effect; on activation (PDE inhibition): % of control where 0% means no effect); conditions: HEK293 ACTOne CNG channel cells, membrane potential fluorescence; activation (PDE inhibition): at 22.9 µM (top of the series)
# Chain of UniProt Q07343 (Q07343 whole entry, looked up): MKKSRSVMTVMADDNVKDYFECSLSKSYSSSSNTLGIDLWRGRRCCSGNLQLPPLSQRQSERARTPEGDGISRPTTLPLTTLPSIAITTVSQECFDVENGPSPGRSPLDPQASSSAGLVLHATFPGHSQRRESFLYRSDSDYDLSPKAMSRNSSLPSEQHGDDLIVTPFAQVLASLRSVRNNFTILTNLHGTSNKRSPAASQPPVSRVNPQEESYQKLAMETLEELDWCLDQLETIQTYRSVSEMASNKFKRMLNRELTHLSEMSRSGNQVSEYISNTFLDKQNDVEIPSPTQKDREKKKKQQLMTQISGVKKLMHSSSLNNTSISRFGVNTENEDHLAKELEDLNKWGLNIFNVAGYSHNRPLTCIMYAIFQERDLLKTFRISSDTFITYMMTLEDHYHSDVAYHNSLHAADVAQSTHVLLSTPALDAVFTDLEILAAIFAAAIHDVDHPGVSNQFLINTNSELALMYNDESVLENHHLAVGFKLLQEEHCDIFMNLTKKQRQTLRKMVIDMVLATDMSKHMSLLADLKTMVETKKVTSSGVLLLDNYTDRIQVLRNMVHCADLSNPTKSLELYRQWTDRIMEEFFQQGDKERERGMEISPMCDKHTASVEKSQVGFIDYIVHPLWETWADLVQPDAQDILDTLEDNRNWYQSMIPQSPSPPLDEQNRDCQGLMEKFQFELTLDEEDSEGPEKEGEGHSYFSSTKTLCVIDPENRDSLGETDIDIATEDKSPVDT
# Method in brief: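 ACTOne HEK293 cells carry a modified cAMP-gated CNG channel and express endogenous PDE4; plated 1000 cells/well, compounds up to 22.9 uM final. Membrane-potential dye fluorescence (ex 535/em 590) was read; parental cells received 10 uM forskolin + 100 uM RO 20-1724.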
# [6] = qHTS Assay for Identification of Small Molecule Antagonists for NFkB Signaling Pathway (AID 895; active means well fitted inhibition curve with a large enough effect in the signal ratio, with a control signal flat, not every such curve was filed as active; inconclusive means small, poorly fitted or top-dose-only effect, or effect the other way, or a change in a side signal; the % refers to the signal ratio; further: on the % scale 0 is the no-effect control and ±100 the full control effect); conditions: NFkB beta-lactamase reporter cells, FRET ratio 460/530, stimulated with 10 pM TNF alpha; activity change, negative = inhibition: at 38.3 µM (top of the series)
# Method in brief: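 ME-180 NFkB-bla cells (beta-lactamase under NFkB response element), plated overnight, treated with compound then 10 pM TNF alpha (about EC50) for 5 hrs at 37 C. LiveBLAzer FRET read at 460/530 nm emission, 405 nm excitation.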
# [7] = qHTS Assay for Identification of Small Molecule Agonists for Thrombopoietin (TPO) Signaling Pathway (AID 917; active means well fitted curve in the direction sought with a large enough effect; inconclusive means small, poorly fitted or top-dose-only effect, or another doubt; inactive means no such curve, though single readings can be large; an effect the other way counts as inactive or inconclusive; further: on the % scale 0 is the no-effect control and ±100 the full control effect); conditions: TPO signaling pathway reporter cells, agonist qHTS, stimulated with TPO at its EC50; activity, positive = activation: at 38.5 µM (top of the series)
# Method in brief: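 Cell-based luciferase reporter screen. Mouse Ba/F3 line stably expressing human TPO receptor; IL-3 removed overnight before plating. Co-treatment with compound and EC50 TPO (26 pM), 24 hrs at 37 C, then luminescence.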
# [8] = qHTS Assay for Identification of Small Molecule Antagonists for Thrombopoietin (TPO) Signaling Pathway (AID 918; active means well fitted curve in the direction sought with a large enough effect; inconclusive means small, poorly fitted or top-dose-only effect, or another doubt; inactive means no such curve, though single readings can be large; an effect the other way counts as inactive or inconclusive; further: nearly all actives have a fitted effect of over 60% in size); conditions: TPO-dependent cell signaling reporter, antagonist mode; activity change, negative = inhibition: at 38.5 µM (top of the series)
# Method in brief: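 Inhibitors of TPO signaling are sought by stimulating IL-3-starved murine Ba/F3 cells (human TPO receptor, Glycoprotein IIb-driven luciferase) with TPO at its EC50 of 26 pM alongside compound. After 24 hrs at 37 C, reporter luminescence is measured.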
# [9] = biological target: Cytochrome P450 3A4 (Homo sapiens) (UniProt P08684); experiment: qHTS Assay for Activators of Cytochrome P450 3A4 (AID 885; active means well fitted curve in the direction sought with a large enough effect; inconclusive means small, poorly fitted or top-dose-only effect, or another doubt; inactive means no such curve, though single readings can be large; an effect the other way counts as inactive or inconclusive; further: nearly all actives have a fitted effect of over 65% in size)
# Method in brief: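 CYP3A4 activity: Luciferin-PPXE O-dealkylation, 25uM substrate, 200mM KPO4, RT throughout. Read-out is luciferase luminescence; higher values reflect activation.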
# [10] = biological target: Cytochrome P450 2D6 (Homo sapiens) (UniProt P10635); experiment: qHTS Assay for Inhibitors and Substrates of Cytochrome P450 2D6 (AID 891; active means well fitted curve in the direction sought with a large enough effect; inconclusive means small, poorly fitted or top-dose-only effect, or another doubt; inactive means no such curve, though single readings can be large; an effect the other way counts as inactive or inconclusive;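 further: luciferin methyl ether substrate demethylated by CYP2D6 with NADPH regeneration; potency means the concentration at half of the fitted maximal effect; nearly all actives have a fitted effect of over 60% in size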); conditions: recombinant CYP2D6, luciferin-ME EGE luminescence; activity change, negative = inhibition: at 57.1 µM (top of the series)
# Chain of UniProt P10635 (P10635 whole entry, looked up): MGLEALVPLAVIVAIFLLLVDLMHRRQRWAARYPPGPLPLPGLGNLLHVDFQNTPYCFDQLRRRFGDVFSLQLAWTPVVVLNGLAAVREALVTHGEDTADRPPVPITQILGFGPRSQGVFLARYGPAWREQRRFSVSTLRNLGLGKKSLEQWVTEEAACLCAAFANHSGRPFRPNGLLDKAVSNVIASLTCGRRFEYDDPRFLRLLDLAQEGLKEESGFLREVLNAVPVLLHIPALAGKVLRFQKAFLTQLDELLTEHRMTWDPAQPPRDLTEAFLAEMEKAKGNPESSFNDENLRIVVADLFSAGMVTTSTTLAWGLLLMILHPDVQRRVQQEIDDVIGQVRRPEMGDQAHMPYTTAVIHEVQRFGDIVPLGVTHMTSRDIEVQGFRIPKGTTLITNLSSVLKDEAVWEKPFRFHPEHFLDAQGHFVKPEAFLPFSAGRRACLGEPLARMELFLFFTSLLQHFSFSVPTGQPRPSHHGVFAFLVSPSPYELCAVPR
# Method in brief: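 Luminescent read-out of luciferin formed by 5 nM human CYP2D6 demethylating 30 uM Luciferin-ME EGE (Km level) over 60 min at room temperature after NADPH regeneration addition. Data normalized to full inhibition by 1.43 uM quinidine.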
# [11] = qHTS Assay for Identification of Small Molecule Agonists for Hypoxia Response Element Signaling Pathway (AID 914; active means well fitted activation curve with a large enough effect in the signal ratio, with a control signal flat, not every such curve was filed as active; inconclusive means small, poorly fitted or top-dose-only effect, or effect the other way, or a change in a side signal; the % refers to the signal ratio; further: potency means the concentration at half of the fitted maximal effect; on activation: top concentration of the series differs between compounds; % of control where 0% means no effect); conditions: ME-180 (cervical carcinoma) HRE-bla reporter, beta-lactamase ratio, CoCl2, 17 h; activation: active compounds read high
# Method in brief: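 In Opti-MEM containing 0.5% dialyzed FBS and 10 mM HEPES, ME-180 HRE-bla cells received a compound titration and EC50 CoCl2. They were incubated 17 hours, then CCF4-loaded 2.5 hours at room temperature before ratio reading.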
# [12] = biological target: Lethal(3)malignant brain tumor-like protein 1 (Homo sapiens) (UniProt Q9Y468); experiment: qHTS Assay for the Inhibitors of L3MBTL1: Hit Validation (AID 540279; active means well fitted curve in the direction sought with a large enough effect; inconclusive means small, poorly fitted or top-dose-only effect, or another doubt; inactive means no such curve, though single readings can be large; an effect the other way counts as inactive or inconclusive; further: potency means the concentration at half of the fitted maximal effect; nearly all actives have a fitted effect of over 70% in size); conditions: L3MBTL1 methyl-lysine binding inhibition, biochemical qHTS
# Chain of UniProt Q9Y468 (Q9Y468 whole entry, looked up): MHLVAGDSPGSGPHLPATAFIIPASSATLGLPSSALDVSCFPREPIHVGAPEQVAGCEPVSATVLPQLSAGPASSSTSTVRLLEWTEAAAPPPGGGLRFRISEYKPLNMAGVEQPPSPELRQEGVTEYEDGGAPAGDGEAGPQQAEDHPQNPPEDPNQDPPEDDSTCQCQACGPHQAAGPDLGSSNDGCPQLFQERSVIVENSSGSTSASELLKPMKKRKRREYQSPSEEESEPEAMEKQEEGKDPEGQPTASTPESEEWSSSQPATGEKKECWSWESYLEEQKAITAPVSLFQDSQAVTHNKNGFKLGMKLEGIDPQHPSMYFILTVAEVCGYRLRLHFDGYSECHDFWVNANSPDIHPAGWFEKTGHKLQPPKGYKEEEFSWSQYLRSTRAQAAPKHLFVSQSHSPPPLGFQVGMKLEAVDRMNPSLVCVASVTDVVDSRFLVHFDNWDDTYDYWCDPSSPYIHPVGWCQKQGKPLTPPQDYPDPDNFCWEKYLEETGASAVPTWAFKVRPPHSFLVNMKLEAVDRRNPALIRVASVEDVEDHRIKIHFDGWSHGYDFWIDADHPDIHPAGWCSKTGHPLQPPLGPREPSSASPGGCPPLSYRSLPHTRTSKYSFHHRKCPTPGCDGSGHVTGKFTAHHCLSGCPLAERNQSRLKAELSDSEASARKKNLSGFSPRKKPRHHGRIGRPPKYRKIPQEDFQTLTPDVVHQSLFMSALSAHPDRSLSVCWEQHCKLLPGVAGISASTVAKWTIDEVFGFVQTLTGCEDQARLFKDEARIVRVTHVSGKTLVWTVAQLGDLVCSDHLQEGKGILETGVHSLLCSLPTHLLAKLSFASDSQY
# Method in brief: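 L3MBTL1 (50 nM final) preformed 30 min with biotinylated H3(1-15)K9me1 peptide (75 nM), then compound 30 min at room temperature. Streptavidin donor and nickel chelate acceptor AlphaScreen beads (10 ug/mL each final) added for 30 min before read.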
# [13] = biological target: Cytochrome P450 2C19 (Homo sapiens) (UniProt P33261); experiment: qHTS Assay for Inhibitors and Substrates of Cytochrome P450 2C19 (AID 899; active means well fitted curve in the direction sought with a large enough effect; inconclusive means small, poorly fitted or top-dose-only effect, or another doubt; inactive means no such curve, though single readings can be large; an effect the other way counts as inactive or inconclusive; further: nearly all actives have a fitted effect of over 60% in size; further: potency means the concentration at half of the fitted maximal effect)
# Chain of UniProt P33261 (P33261 whole entry, looked up): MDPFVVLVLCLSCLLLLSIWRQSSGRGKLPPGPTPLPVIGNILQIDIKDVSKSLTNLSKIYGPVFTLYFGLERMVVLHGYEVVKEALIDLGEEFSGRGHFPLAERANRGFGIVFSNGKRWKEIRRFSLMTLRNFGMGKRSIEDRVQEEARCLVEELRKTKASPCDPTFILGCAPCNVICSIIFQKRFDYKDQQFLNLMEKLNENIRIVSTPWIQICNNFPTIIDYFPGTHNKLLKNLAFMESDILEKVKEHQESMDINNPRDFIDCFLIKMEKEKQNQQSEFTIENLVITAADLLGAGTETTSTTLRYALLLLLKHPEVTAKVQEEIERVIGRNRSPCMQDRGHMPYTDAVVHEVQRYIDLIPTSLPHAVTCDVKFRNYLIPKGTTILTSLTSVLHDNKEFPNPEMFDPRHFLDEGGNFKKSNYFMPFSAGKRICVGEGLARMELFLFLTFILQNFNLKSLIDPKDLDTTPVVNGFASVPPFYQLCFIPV
# Method in brief: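 Luminescent read-out of luciferin formed from Luciferin-H EGE (10uM, equal to KM). Enzyme 5nM in 50mM KPO4; compound added, 10 min at 37C, then NADPH regenerating system for 60 min at 37C. Full inhibition defined by 57uM ketoconazole.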
# [14] = biological target: Cytochrome P450 2C9 (Homo sapiens) (UniProt P11712); experiment: qHTS Assay for Inhibitors and Substrates of Cytochrome P450 2C9 (AID 883; active means well fitted curve in the direction sought with a large enough effect; inconclusive means small, poorly fitted or top-dose-only effect, or another doubt; inactive means no such curve, though single readings can be large; an effect the other way counts as inactive or inconclusive; further: potency means the concentration at half of the fitted maximal effect; nearly all actives have a fitted effect of over 60% in size); conditions: recombinant CYP2C9, luciferin-H luminescence, 60 min; activity change, negative = inhibition: at 57.1 µM (top of the series)
# Chain of UniProt P11712 (P11712 whole entry, looked up): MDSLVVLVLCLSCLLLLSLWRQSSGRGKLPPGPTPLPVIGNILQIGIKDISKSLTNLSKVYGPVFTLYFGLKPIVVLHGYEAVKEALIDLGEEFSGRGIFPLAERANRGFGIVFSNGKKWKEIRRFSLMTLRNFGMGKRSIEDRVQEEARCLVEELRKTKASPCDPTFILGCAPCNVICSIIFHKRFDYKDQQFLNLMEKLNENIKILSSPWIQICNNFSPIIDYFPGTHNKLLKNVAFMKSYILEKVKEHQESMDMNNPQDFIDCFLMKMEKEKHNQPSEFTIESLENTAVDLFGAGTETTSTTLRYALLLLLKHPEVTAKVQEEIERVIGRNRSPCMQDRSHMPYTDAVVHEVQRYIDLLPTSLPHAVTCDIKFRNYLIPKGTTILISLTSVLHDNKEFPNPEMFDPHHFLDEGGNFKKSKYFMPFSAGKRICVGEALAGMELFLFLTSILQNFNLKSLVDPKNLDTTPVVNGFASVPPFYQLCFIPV
# Method in brief: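 10nM CYP2C9 + 100uM Luciferin-H (=KM), 25mM KPO4; cpd 10 min 37C; NADPH regen, 60 min 37C; stop/detect with P450 Glo-Buffer 20 min; luminescence. Norm. to 57uM sulphaphenazole as full inhibition.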
# Tags describe the fitted curve by direction and shape or compound fluorescence and quenching.
smiles,measurement,setting,value
CSc1nc(N)c2ncn([C@@H]3O[C@@H](COP(=O)(O)OP(=O)(O)O)[C@@H](O)[C@H]3O)c2n1,"activity change, negative = inhibition",[1],inactive: 6.32% [at 38 µM]
same,Potency,[2],"inconclusive: 6.31 µM [activator, full curve]"
same,Potency,[3],"inconclusive: 79.4 nM [inhibitor, full curve, poor fit]"
Cn1c(=O)c2[nH]c(CCCc3ccc([N+](=O)[O-])cc3)nc2n(C)c1=O,"activity change, negative = inhibition",[1],inactive: -1.84% [at 7.69 µM]
same,"activity change, negative = inhibition",[2],inactive: 3.17% [at 11.4 µM]
same,Potency,[4],"inconclusive: 3.98 µM [inhibitor, partial curve]"
O=C(Nc1ccccc1)N1CC[C@@]2(CCCN(C(=O)c3cc(C(F)(F)F)cc(C(F)(F)F)c3)C2)C1,"activity change, negative = inhibition",[1],inconclusive: 31.3% [activator] [at 7.69 µM]
same,Potency,[5],inactive
[N-]=[N+]=Nc1ccc(C(=O)CSC[C@@H](NC(=O)CC[C@@H](N)C(=O)O)C(=O)NCC(=O)O)cc1,"activity change, negative = inhibition",[1],inactive: -3.2% [at 38 µM]
same,"activity change, negative = inhibition",[2],inconclusive: 27.3%
same,Potency,[6],inactive
same,Potency,[7],inactive
same,"activity change, negative = inhibition",[8],inconclusive: -26.8% [phenotype inactive]
CN(C)c1ccc(N=Nc2cccc3ccoc23)cc1,"activity change, negative = inhibition",[1],inactive: -18.9% [at 7.69 µM]
same,Potency,[2],"inconclusive: 3.98 µM [inhibitor, partial curve]"
same,Potency,[4],"inconclusive: 3.98 µM [inhibitor, partial curve]"
same,"activity change, positive = activation",[9],inactive: -30.8% [at 11.4 µM]
same,Potency,[10],"inconclusive: 3.16 µM [inhibitor, single point]"
same,activation,[11],inconclusive: -23.2%
Cc1cc(=O)oc2c(CN3CCC(C)CC3)c(O)c(Cl)cc12,"activity change, negative = inhibition",[1],inconclusive: 44.1% [activator]
same,activation,[11],inconclusive: 19%
same,Potency,[12],active: 10.6 µM
c1ccc(SCCc2ccncc2)cc1,"activity change, negative = inhibition",[1],inconclusive: 1.39% [activator] [at 7.69 µM]
same,Potency,[2],"inconclusive: 0.01 µM [activator, full curve]"
same,Potency,[4],active: 2.51 µM
same,Potency,[11],"inconclusive: 1 µM [cytotoxic, side channel, single point]"
Cn1cccc1C(=O)N1CCC2(CCCN(c3ccc(-c4ccccc4)cc3)C2)CC1,"activity change, negative = inhibition",[1],inactive: -14.9% [at 7.69 µM]
same,Potency,[2],"inconclusive: 25.1 µM [inhibitor, single point]"
same,Potency,[11],"inconclusive: 2.51 µM [inhibitor, partial curve]"
CN(C)CCCN1CCC2(CCC(C(C)(C)C)CC2)CC1,"activity change, negative = inhibition",[1],inconclusive: 35.8% [activator] [at 7.69 µM]
same,activation (PDE inhibition),[5],inconclusive: 30.7%
Cc1cnc(CNc2ncnc3ccc(-c4ccc5c(c4)OCO5)cc23)cn1,"activity change, negative = inhibition",[1],inactive: 14.2% [at 7.69 µM]
same,Potency,[2],"inconclusive: 25.1 µM [inhibitor, single point]"
same,Potency,[9],inactive
CSc1ncnc2c1ncn2CC(=O)[C@H]1CC[C@H]2[C@H]3CCC4=CC(=O)CC[C@@]4(C)[C@@H]3CC[C@@]12C,"activity change, negative = inhibition",[1],inconclusive: -90.5% [inhibitor] [at 7.69 µM]
same,"activity change, negative = inhibition",[2],inactive: 4.5% [at 11.4 µM]
same,Potency,[13],inactive
same,Potency,[11],"inconclusive: 3.16 µM [inhibitor, single point]"
CC(C)CN1CCCC2(CCN(C(=O)c3csnn3)CC2)C1,"activity change, negative = inhibition",[1],inconclusive: -68.6% [inhibitor] [at 7.69 µM]
same,Potency,[5],inactive
CCCC(c1cc(C(C)(C)C)c(O)cc1C)c1cc(C(C)(C)C)c(O)cc1C,"activity change, negative = inhibition",[1],inconclusive: -85.9% [inhibitor] [at 7.69 µM]
same,Potency,[5],inactive
same,Potency,[14],"inconclusive: 3.16 µM [inhibitor, single point]"
same,Potency,[10],"inconclusive: 3.98 µM [inhibitor, partial curve]"
same,activation,[11],inconclusive: -66.9%
O=C(c1ccco1)N1CCC2(CCCN(C(c3ccccc3)c3ccccc3)C2)CC1,"activity change, negative = inhibition",[1],active: -80.8% [at 7.69 µM]
same,Potency,[5],inactive
C[C@@H]1C[C@@H]2[C@H]3CCC4=CC(=O)C=C[C@]4(C)[C@]3(F)[C@@H](O)C[C@]2(C)[C@@]1(O)C(=O)CO,"activity change, negative = inhibition",[1],inactive: -9.85%
same,Potency,[5],inactive
COc1ccc(CNc2nc(-c3cccc(C#N)c3)nc3ccccc23)c(OC)c1,"activity change, negative = inhibition",[1],inconclusive: -41.2% [inhibitor] [at 7.69 µM]
same,Potency,[5],"inconclusive: 6.31 µM [activator, partial curve]"
same,Potency,[10],"inconclusive: 3.98 µM [inhibitor, full curve]"
same,Potency,[13],"inconclusive: 1.58 µM [inhibitor, full curve]"
CN(C)Cc1cc(Cl)c(O)c(CN(C)C)c1,"activity change, negative = inhibition",[1],inactive: 15.1% [at 7.69 µM]
same,Potency,[5],inactive
CCOC(=O)C1=C(C)NC(C)=C(C(=O)OC)[C@@H]1c1cccc(Cl)c1Cl,"activity change, negative = inhibition",[1],inconclusive: -55% [inhibitor]
same,Potency,[5],"inconclusive: 15.1 µM [activator, single point]"
